Reference: PubChem BioAssay AID1963576 (National Center for Advancing Translational Sciences (NCATS), 2024)
About 60 (0.1%) of roughly 46,000 compounds were called active. Another 3% or so got no clear call; they are omitted. The call rests on the fitted dose curve; in most records, active means well fitted inhibition curve with a large enough effect; inconclusive means small, poorly fitted or top-dose-only effect; inactive means no such curve, though single readings can be large or run the other way. The list shows a part of the results.

assay: Primary qHTS assay for Inhibitors of ovarian cancer metastasis using an organotypic tumor microenvironment (TME) model.; further: nearly all actives have a fitted effect of over 65% in size;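 on activity change, negative = inhibition: plate controls were DMSO wells for no effect and tomatine positive control wells for full effect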; details: SKOV3ip1-GFP adhesion/invasion on 3D omental model, fluorescence; series mostly up to 45.8 µM; activity change, negative = inhibition: at the top concentration
Procedure, shortened: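 Primary human omental fibroblast/mesothelial 3D culture pre-formed 48 h. SKOV3ip1-GFP cells added with compounds (0.36-46 umol/L), incubated 2 h RT/16 h 37 C, fixed; GFP cells quantified at 488/509 nm.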

Activity change, negative = inhibition, inactive:
CCCCNC(=O)C1CCCN(c2nnc(C)c3c(C)n(-c4ccc(Cl)cc4)nc23)C1 (stereo unspecified) 4.38%
CC1CN(C(=O)N2CCC(C(=O)NCCC3=CCCCC3)CC2)c2ccccc2O1 (stereo unspecified) 1.4%
COc1cc2c(=O)c(S(=O)(=O)c3ccc(C)cc3)cn(Cc3cccc(C)c3)c2cc1OC -10.3%
CCOC(=O)C1(C)C=C(Nc2ccc(C)cc2)C(=O)N1c1ccccc1 (stereo unspecified) 26.2%
CCN(CC)CCN(C(=O)c1ccc(C(=O)OC)cc1)c1nc2ccc(Cl)cc2s1 -9.71%
O=C(Nc1ccc2nn(-c3ccc(F)cc3)nc2c1)c1cccc2c(Cl)cccc12 7.61%
CCOc1ccccc1NC(=O)c1ccc2c(c1)CCCN2S(C)(=O)=O -0.653%
COc1cccc(C(=O)N2CCC(c3nc4ccccc4s3)CC2)c1 1.85%
CCc1nnc(SCc2nc(-c3ccccc3F)oc2C)c2cc3sccc3n12 -8.66%
CCOc1ccccc1NC(=O)c1c(NCc2ccc(OC)c(OC)c2OC)sc2c1CCC(C)C2 (stereo unspecified) -13.3%
COC(=O)c1cccc(Nc2c(-c3cc(Br)ccc3O)nc3nc[nH]n23)c1 12.2%
Cc1ccc(Cl)cc1N1CCN(C(=O)c2c(C)oc3ncnc(N4CCOCC4)c23)CC1 -5.82%
CCCCCNC(=O)C1CCC(Cn2c(=O)c3sccc3n(CC(=O)N3CCCC3)c2=O)CC1 (stereo unspecified) -4.79%
Cc1cccc(-c2noc(-c3ccc(NC4CCCC4)c([N+](=O)[O-])c3)n2)c1 -12.3%
Cc1cc2n(n1)CCCN2C(=O)Nc1ccccc1F -3.26%
Cc1ccc(Cl)cc1-n1c(=O)cc(N2CCN(c3ccccc3)CC2)[nH]c1=O -2.03%
CCOCN(C(=O)Cn1c(C)nc2ccccc21)c1c(C)cccc1CC -0.811%
CCOC(=O)c1c(S(=O)(=O)N2CCN(c3ccccc3OC)CC2)c(C)n(C)c1C 1.16%
COc1cccc(C(=O)Nc2ccccc2-c2nc(-c3ccc(C)cc3)no2)c1 -7.32%
CCc1ccccc1NC(=O)CC(C)n1nc(C)cc1C (stereo unspecified) 11.1%
O=c1c2cc3c(cc2n(Cc2cccc(F)c2)c(=O)n1Cc1nc(-c2ccccc2)no1)OCO3 -1.67%
c1ccc(N2CCN(c3ncnc4[nH]ncc34)CC2)cc1 -11.3%
CC(=O)c1cccc(NC(=O)c2sc3nc4c(cc3c2N)CCCC4)c1 -6.24%
COc1cc(OC)c(NC(=O)NCc2ccc3c(c2)CCN3C(C)=O)cc1Cl 0.761%
CCc1ccccc1N1C(=O)N(Cc2cccc(Cl)c2)c2ccccc2S1(=O)=O 2.47%
CCCNS(=O)(=O)c1cc(-c2nnc3c4ccccc4c(C)nn23)ccc1OC -2.59%
Cc1cccn2c(=O)c(C(=O)NCCc3ccc(Cl)cc3)cnc12 -11.1%
CC(=O)c1ccc(NC(=O)C2CCC(CNS(=O)(=O)c3cccc4nsnc34)CC2)cc1 (stereo unspecified) -0.253%
COCCN1C(=O)c2[nH]nc(-c3c(C)cc(C)cc3O)c2C1c1cccc(O)c1 (stereo unspecified) 6.53%
CCOc1ccc(NC(=O)C2CCCN(c3nnc(-n4c(C)ccc4C)s3)C2)cc1 (stereo unspecified) -0.146%
Cc1ccc(Cl)cc1NC(=O)c1cccc(NC(=O)N2CCSc3ncccc32)c1 6.3%
Cc1ccc(C(=O)NCc2nnnn2-c2ccc(C)c(C)c2)cc1 -20.4%
Cc1cccc(NC(=O)c2sc3nc4c(cc3c2N)CN(Cc2ccccc2)CC4)c1 -19.5%
CCOc1ccccc1NC(=O)C(C)Sc1nc(-c2ccccc2)c(C#N)c(=O)[nH]1 (stereo unspecified) 14%
COc1ccccc1NC(=O)c1oc2ccccc2c1NC(=O)c1ccccc1C(F)(F)F -20.6%
CCCCOc1ccc(C(=O)NCCc2sc(-c3cccc(F)c3)nc2C)cc1 2.3%
Cc1ccc(C)c(Cn2c(=O)n(Cc3ccc4c(c3)OCO4)c(=O)c3oc4ccccc4c32)c1 17.8%
O=C(Nc1ccc(NC(=O)c2cccs2)cc1)c1cccc(Br)c1 10.3%
Cc1cc2nc(-c3ccc(OCc4ccc(F)cc4)cc3)cc(C(F)(F)F)n2n1 -14.1%
COC(=O)c1ccc(NC(=O)CC2C(=O)N(c3ccc(F)cc3)C(=O)N2Cc2ccc(OC)cc2)cc1 (stereo unspecified) 11.5%
CCOc1ccc(/C=C/c2nc(C#N)c(NC(C)CC)o2)cc1 (stereo unspecified) -2.64%
Cc1nc2sc(C(=O)Nc3ccc(F)cc3)c(N)c2c(-c2ccc(Br)cc2)c1C(=O)Nc1ccc(Cl)cc1 10%
CCc1cccc(NC(=O)c2cnc(SC)nc2-c2ccccc2)c1 7.11%
O=C(Cn1ncc2c3ccccc3n(Cc3ccc(Cl)cc3)c2c1=O)NCc1cccs1 7.75%

outcome, inactive:
CSc1cccc(NC(=O)C2CCN(S(=O)(=O)c3ccc4[nH]c(=O)ccc4c3)CC2)c1
CC(=O)c1ccc(NC(=O)CSc2nccn2Cc2ccco2)cc1
CC(C)c1ccc(S(=O)(=O)Nc2ccc(O)c(Sc3nc4ccccc4s3)c2)cc1
Cc1ccc(C(=O)Nc2nnc(SCc3cc(=O)c4c(C)ccc(C)c4[nH]3)s2)cc1
O=C(C1COc2ccccc2O1)N(Cc1cccnc1)c1nc2c(F)cc(F)cc2s1 (stereo unspecified)
COCCNc1cc(N2CCN(C3CCCCC3)CC2)c2noc3c2c1C(=O)c1ccccc1-3
Cc1cc(C)cc(OCC(=O)Nc2ccc(-c3nc4ncccc4o3)cc2C)c1
COc1cccc(C(=O)N2CCC(N3CCN(Cc4ccc(F)cc4)C(=O)C3=O)CC2)c1
COc1ccc(NC(=O)CSc2nnc(-c3nnn(-c4ccc(F)cc4)c3C)o2)cc1
O=C(CC1N=C2c3ccccc3N=C(SCc3cccc(Cl)c3)N2C1=O)NC1CCCCC1 (stereo unspecified)
Cc1ccc(OCC(=O)Nc2cccc(C(=O)OCc3cc(=O)n4cc(C)sc4n3)c2)cc1
Cn1c(=NC(=O)c2ccc(F)cc2)sc2cc(Br)ccc21
Cc1ccc(N2C(=O)c3n[nH]c(C)c3C2c2ccc(C(C)C)cc2)cc1 (stereo unspecified)
CC(C)(C)OC(=O)N1CCC(c2c(C(=O)N3CCN(C(=O)c4ccco4)CC3)cnn2-c2ccc(Cl)cc2)CC1
COc1ccc(S(=O)(=O)N(CCc2ccccc2)CC(=O)NCc2ccccc2)cc1OC
CCc1ccc(NCc2cc3ccc(OC)cc3n(CC(=O)Nc3cccc(Cl)c3C)c2=O)cc1
Cc1ccc(-c2nnc(Nc3ccc(Br)cc3)c3ccccc23)cc1S(=O)(=O)NCc1nc2ccccc2[nH]1
